# Experimental data from the supplement of paper PMC10126150.
# Values marked as one replicate rest on one cluster of the flow cell; about a third of the high ones do not repeat.
# Tested on: ATP
# Experiment: switch fluorescence ratio, 500 uM ATP over buffer (Cy3 cluster intensity, sum of 5 cycles each) (fold (ratio)); higher = stronger signal-on switching upon ATP binding; sequences stand for … in TCGTCGGCAGCGTCAGATGTGTATAAGAGACAGTTTTTTTTTTTTTTTTTTTTTTTTT…TC
# Settings: aptamer strand: ATP DNA aptamer (quencher-CACCTGGGGGAGTATTGCGGAGGAAGG + anchor), 100 nM annealed; ATP concentration: 500 uM; one replicate
# How it was run: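 Imaging in selection buffer was followed by imaging after 15 min with 500 uM ATP at 22 °C, for Cy3-labelled switching-strand clusters annealed to 100 nM quencher-labelled ATP aptamer on a modified Illumina MiSeq flow-cell. Five of these buffer/ATP cycles ran, separated by NaOH stripping and re-annealing. The fluorescence ratio per cluster is summed target-cycle over summed buffer-cycle Cy3 intensity, averaged per switch-domain sequence; clusters outside 100-1000 RFU were removed.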
# 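Note: ATP exposure 15 min at 22 °C before imaging.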
row,Sequence,switch fluorescence ratio
1,AATAGTTGCC,1.01
2,AATATAGTGG,0.958
3,AATATATAAG,0.985
4,AATATATCTC,0.961
5,AATATATTG,0.959
6,AATATCAGTG,0.988
7,AATATGGGAC,1.03
8,AATATGGGCT,1
9,AATATGGTAA,0.987
10,AATATTAGTC,1.01
11,AATATTCTT,1.02
12,AATCACGCAA,4.39
13,AATCAGCAGT,1.22
14,AATCAGTCGT,0.987
15,AATCATGAAA,1
16,AATCCCAAGG,1.38
17,AATCCGAAAG,1.23
18,AATCCTGCAC,1.34
19,AATCGAATCT,1.06
20,AATCGACGGA,1.04
21,AATCGATAAT,1.07
22,AATCGATGCC,1.02
23,AATCGCATCG,1.06
24,AATCGGACGG,1.04
25,AATCGGAGTG,0.996
26,AATCGGGACA,1.01

row,Sequence,switch fluorescence ratio
1,AATCGTACGG,1.01
2,AATCGTCGA,0.95
3,AATCGTTGAT,0.968
4,AATCTAAATC,1.02
5,AATCTAGAGC,0.933
6,AATCTAGGTA,1.03
7,AATCTATTTA,1.01
8,AATCTGCT,1.01
9,AATGAAGACT,1.03
10,AATGAAGCTA,1.01
11,AATGAATCCT,1.07
12,AATGACCACG,1.05
13,AATGAGATAT,1.01
14,AATGAGGTAC,1
15,AATGATAGGA,0.996
16,AATGATTTC,0.992
17,AATGCATGAT,1.03
18,AATGCCCCTT,1.01
19,AATGCCGGTC,0.859
20,AATGCCTAGT,0.945
21,AATGCTGTCA,0.978
22,AATGCTTACT,1
23,AATGCTTTCA,1.03
24,AATGGAAGGA,0.965
25,AATGGAGA,1.03
26,AATGGATTCA,1.11

row,Sequence,switch fluorescence ratio
1,AATGGATTCG,0.966
2,AATGGCCTAG,1
3,AATGGGAAAC,1.01
4,AATGGGAGTT,1.03
5,AATGGGTCGG,0.98
6,AATGGTACCG,1
7,AATGTAATTG,0.98
8,AATGTAGTTC,0.99
9,AATGTATCTG,0.99
10,AATGTATTGG,1.03
11,AATGTCATTA,0.973
12,AATGTCCGAC,1.08
13,AATGTCGTTT,1.02
14,AATGTGAATC,1
15,AATGTGACCA,0.965
16,AATGTGTGGA,1.07
17,AATGTTCGCG,1.01
18,AATGTTTCG,0.963
19,AATTAAAACG,1.02
20,AATTAAAGCA,1.09
21,AATTAATCCG,1.03
22,AATTACAAAG,1.03
23,AATTACGTAT,1.13
24,AATTAGCGCG,0.993
25,AATTAGTGGT,0.998
26,AATTATAGCA,0.992

row,Sequence,switch fluorescence ratio
1,AATTATGAAC,1.05
2,AATTATGAGC,1.08
3,AATTATGGAC,1
4,AATTCAAATG,1.03
5,AATTCAAGGG,1.01
6,AATTCAGCGT,0.946
7,AATTCAGGAA,0.978
8,AATTCATAAG,0.943
9,AATTCCGTAT,1.06
10,AATTCGCGAG,0.987
11,AATTCGGAGG,0.987
12,AATTCGGCCG,1.03
13,AATTCGGTGT,0.994
14,AATTCGTGC,1.04
15,AATTCTAAGG,1.02
16,AATTGATAGT,1.04
17,AATTGCCCTG,0.98
18,AATTGCTAGT,1
19,AATTGGATCA,0.984
20,AATTGGCAAC,0.989
21,AATTGGCTCG,0.956
22,AATTGGGAAT,0.997
23,AATTGGGGCC,0.947
24,AATTGGGTG,0.943
25,AATTGGTTGG,0.992
26,AATTGTCACG,1.01

row,Sequence,switch fluorescence ratio
1,AATTTAATAA,0.984
2,AATTTACCTG,1.04
3,AATTTATCTT,1.06
4,AATTTATTAG,0.99
5,AATTTCATAT,0.973
6,AATTTCGACC,1.05
7,AATTTCGTAT,1.04
8,AATTTGCCAA,0.989
9,AATTTGCTTA,1.02
10,AATTTGTAA,0.969
11,AATTTTAAAA,1.05
12,AATTTTACC,1.02
13,AATTTTCAGT,1
14,ACAAAAAAAT,1.01
15,ACAAAAGCGA,0.949
16,ACAAACAGAC,1.21
17,ACAAACCGCA,1.34
18,ACAAACGCAC,1.71
19,ACAAACGG,1.39
20,ACAAAGCCGA,0.955
21,ACAAATACGG,1.09
22,ACAAATGCGT,0.997
23,ACAAATGGGC,1.03
24,ACAACCTAAG,1.03
25,ACAACGAAAT,1.17
26,ACAACGCACT,1.81

row,Sequence,switch fluorescence ratio
1,ACAACGTAAT,1.07
2,ACAACGTTGG,1.04
3,ACAACTAATA,1.03
4,ACAACTGGGA,1.04
5,ACAAGAATAG,1.02
6,ACAAGCCGGC,0.999
7,ACAAGCGGGC,1.07
8,ACAAGCGTGT,0.942
9,ACAAGCTCCG,0.972
10,ACAAGGAAAA,1.05
11,ACAAGGTCGA,1.03
12,ACAAGTAGAG,0.985
13,ACAATCAATT,0.997
14,ACAATGAGCG,1.08
15,ACAATGCGTT,1.15
16,ACAATGGGCT,0.983
17,ACAATTAGCA,1.07
18,ACAATTTATG,0.986
19,ACACACTAGT,1.4
20,ACACGAGGGC,0.983
21,ACACGGGTGG,1.07
22,ACACGGTCTC,0.971
23,ACACGTTT,1.02
